{
  "source": "PubChem BioAssay AID2675",
  "about": "(National Center for Advancing Translational Sciences (NCATS), 2010)",
  "note": "About 100 (0.036%) of roughly 280,000 compounds were called active. Inconclusive means that the source gave no clear call. Such entries were picked first, then a sample of the others. Calls follow the shape of the dose curve; as a rule, active = well fitted inhibition curve with a large enough effect in the signal ratio, with a control signal flat (not every such curve was filed as active); inconclusive = small, poorly fitted or top-dose-only effect, or effect the other way, or a change in a side signal; inactive = no such curve, though single readings can be large or run the other way; the % refers to the signal ratio. Potencies beside an inconclusive call are fits to weak or partial responses and may not hold up. “Side channel” marks fits to a control or component signal instead of the main read-out. Potency is read from the fitted curve at half-maximal effect; tags tell the direction and shape of the fitted curve or compound fluorescence and quenching.",
  "data": [
    {"target": "Muscleblind-like protein 1 (Homo sapiens) (UniProt Q9NR56)", "sequence (Q9NR56 whole entry, looked up)": "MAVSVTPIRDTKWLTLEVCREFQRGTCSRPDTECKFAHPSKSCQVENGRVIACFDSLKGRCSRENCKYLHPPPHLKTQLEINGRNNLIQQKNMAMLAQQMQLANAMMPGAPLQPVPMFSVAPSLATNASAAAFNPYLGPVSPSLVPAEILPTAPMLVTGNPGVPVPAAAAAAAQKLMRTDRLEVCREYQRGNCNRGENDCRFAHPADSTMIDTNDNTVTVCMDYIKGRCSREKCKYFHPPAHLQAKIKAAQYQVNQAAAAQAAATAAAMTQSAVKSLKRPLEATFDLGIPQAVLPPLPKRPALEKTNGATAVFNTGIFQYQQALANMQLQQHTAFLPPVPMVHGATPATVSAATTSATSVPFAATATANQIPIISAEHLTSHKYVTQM", "test": "qHTS Assay for Inhibitors of MBNL1-poly(CUG) RNA binding", "conditions": "TR-FRET MBNL1-His/biotin-(CUG)12 binding, 665/545 ratio; series mostly up to 57.5 µM", "how_it_was_run": "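TR-FRET between His-tagged MBNL1 and biotin-(CUG)12 RNA, detected with Tb anti-His antibody (0.055 ng/ul) and streptavidin-XL665 (5 nM), 60 min at room temperature. Compounds titrated 92 nM to 58 uM; 665/545 nm ratio normalized to buffer and complex controls.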", "values": [
      {"smiles": "COc1ccc(-n2c(SCc3ccccn3)nc3c(c2=O)SCC3)cc1OC", "Potency": "inconclusive: 28.2 µM [quencher, side channel, partial curve]"},
      {"smiles": "Cc1c(C(=O)N2CCCCC2)c(S(=O)(=O)Nc2cccc(Br)c2)c(C)n1C", "Potency": "inactive"},
      {"smiles": "O=C(N/N=C/c1cc(Cl)ccc1O)c1cccnc1", "Potency": "inconclusive: 11.2 µM [quencher, side channel, partial curve]"},
      {"smiles": "Cc1ccccc1N(CC(=O)N/N=C/c1ccc(N(C)C)cc1)C(=O)c1ccccc1", "Potency": "inconclusive: 28.2 µM [quencher, side channel, partial curve]"},
      {"smiles": "C=CCN(CC=C)C(=O)COC(=O)c1ccc(Sc2ncn[nH]2)c([N+](=O)[O-])c1", "Potency": "inconclusive: 14.1 µM [quencher, side channel, partial curve]"},
      {"smiles": "CSc1ccc(Cl)c(C(=O)OCC(=O)Nc2ccccc2OC(F)F)c1", "Potency": "inactive"},
      {"smiles": "Cc1ccc(NC(=O)CC(=O)c2ccc([N+](=O)[O-])cc2)cc1S(=O)(=O)Nc1cccc(Cl)c1", "Potency": "inconclusive: 25.1 µM [quencher, side channel, partial curve]"},
      {"smiles": "CCc1c(C)nc(N2CCN(c3cccc(OC)c3)CC2)[nH]c1=O", "Potency": "inactive"},
      {"smiles": "CC(C)NC(=O)NS(=O)(=O)c1cnccc1NC1CC2CCC1C2", "note": "(configuration not stated)", "Potency": "inconclusive: 31.6 µM [fluorescent, side channel, single point]"},
      {"smiles": "O=C(Nc1nnc(C2CC2)s1)c1cccs1", "Potency": "inactive"},
      {"smiles": "Nc1nnc(CC(=O)N/N=C\\c2cc([N+](=O)[O-])ccc2O)s1", "Potency": "inconclusive: 15.8 µM [quencher, partial curve]"},
      {"smiles": "COc1ccc(-c2nc[nH]c2[N+](=O)[O-])cc1", "Potency": "inconclusive: 15.8 µM [quencher, partial curve]"},
      {"smiles": "O=C(CNC(=O)c1cccc(F)c1)N/N=C/c1cccnc1", "Potency": "inconclusive: 22.4 µM [quencher, side channel, partial curve]"},
      {"smiles": "COc1cc(/C=N/NC(=O)c2nc3ccccn3c2C)cc(OC)c1O", "Potency": "inconclusive: 20 µM [quencher, side channel, single point]"},
      {"smiles": "COc1ccc(CN2CCN(c3cccc(C)c3C)CC2)cc1OC", "Potency": "active: 25.1 µM"},
      {"smiles": "CCOC(=O)Cn1c(=S)[nH]c2c(oc3ccc(Cl)cc32)c1=O", "Potency": "inactive"},
      {"smiles": "CN1CCN(/N=C/c2ccc(N(c3ccccc3)c3ccccc3)cc2)CC1", "Potency": "inactive"},
      {"smiles": "CCOCCn1c(=NC(=O)CSCC(=O)Nc2cc(C)on2)sc2cc(OC)ccc21", "Potency": "inconclusive: 39.8 µM [fluorescent, side channel, single point]"},
      {"smiles": "CC(=O)CCN1C(=O)NC2(CCCc3ccccc32)C1=O", "note": "(configuration not stated)", "Potency": "inactive"},
      {"smiles": "CC(=O)/C(=N\\Nc1ccccc1)Sc1nnc(-c2ccccc2)n1-c1ccccc1", "Potency": "inactive"},
      {"smiles": "Cc1ccc(C(=O)N/C(=C\\c2ccc(-c3ccccc3[N+](=O)[O-])o2)C(=O)NCCCN(C)C)cc1", "Potency": "inconclusive: 28.2 µM [quencher, single point]"},
      {"smiles": "CCOCCCn1c(=NC(=O)c2cccs2)c(C#N)cc2c(=O)n3cccc(C)c3nc21", "Potency": "inconclusive: 2.51 µM [quencher, side channel, full curve]"},
      {"smiles": "Cc1ccc(/C=C2\\SC(=S)N(C3CCS(=O)(=O)C3)C2=O)o1", "note": "(configuration not stated)", "Potency": "inconclusive: 14.1 µM [quencher, side channel, partial curve]"},
      {"smiles": "O=[N+]([O-])c1cccc2ncccc12", "Potency": "inconclusive: 8.91 µM [quencher, side channel, full curve]"},
      {"smiles": "CC(=O)C(Cc1ccc(Cl)nc1)Cc1ccc(Cl)nc1", "Potency": "inconclusive: 0.708 µM [fluorescent, side channel, single point]"},
      {"smiles": "N#C/C(=N\\Nc1ccc(Br)cc1)C(=N)N1CCOCC1", "Potency": "inconclusive: 28.2 µM [quencher, side channel, partial curve]"},
      {"smiles": "COc1cccc(/C=C2\\SC(=S)N(CCC(=O)N3CCCCC3CCO)C2=O)c1", "note": "(configuration not stated)", "Potency": "inconclusive: 15.8 µM [quencher, side channel, partial curve]"},
      {"smiles": "Cc1cccc(/C=N/NC(=O)Cc2ccc(Cl)cc2)c1O", "Potency": "inactive"},
      {"smiles": "Cc1cc(N2CCN(c3nc4ccccc4s3)CC2)n2ncnc2n1", "Potency": "inactive"},
      {"smiles": "COc1ccccc1CNC(=O)CC(C)C", "Potency": "inactive"},
      {"smiles": "NC(=O)c1nsc(C(=O)N(c2ccccc2)C(C(=O)NCC2CCCO2)c2ccc3ncccc3c2)c1N", "note": "(configuration not stated)", "Potency": "inconclusive: 22.4 µM [quencher, side channel, partial curve]"},
      {"smiles": "O=C(NCC1CC1)[C@@H]1C[C@H]1[C@@H](NP(=O)(c1ccccc1)c1ccccc1)c1ccccc1", "Potency": "inconclusive: 4.47 µM [inhibitor, full curve, poor fit]"},
      {"smiles": "COc1ccc(Br)cc1/C=N/NC(=O)CNC(=O)/C=C/c1ccccc1", "Potency": "inactive"},
      {"smiles": "Cc1ccccc1NC(=O)CCN1CCCC1", "Potency": "inactive"},
      {"smiles": "O=[N+]([O-])c1ccc2nc(NS(=O)(=O)c3ccccc3[N+](=O)[O-])sc2c1", "Potency": "inconclusive: 44.7 µM [quencher, side channel, partial curve, poor fit]"},
      {"smiles": "O=c1c([N+](=O)[O-])cccn1Cc1ccccc1Cl", "Potency": "inconclusive: 12.6 µM [quencher, side channel, partial curve]"},
      {"smiles": "Cc1cc(NCCN2CCOCC2)n2nc(C)c(-c3ccc(Cl)cc3)c2n1", "Potency": "inactive"},
      {"smiles": "COc1ccc(Nc2nnc(-c3ccc(O)cc3)c3ccccc23)cc1", "Potency": "inconclusive: 31.6 µM [quencher, side channel, single point]"},
      {"smiles": "O=C(CSc1n[nH]c(=O)[nH]c1=O)c1ccccc1[N+](=O)[O-]", "Potency": "inconclusive: 17.8 µM [quencher, side channel, partial curve]"},
      {"smiles": "CCS(=O)(=O)c1nc(S(=O)(=O)c2ccc(Cl)cc2)c(NCCOC)s1", "Potency": "inconclusive: 25.1 µM [fluorescent, side channel, single point]"},
      {"smiles": "Cc1cccc(N=Nc2c(C)nn(-c3ccccc3)c2N)c1C", "Potency": "inconclusive: 8.91 µM [quencher, side channel, partial curve, poor fit]"},
      {"smiles": "Cc1ccc(NC(=O)c2ccc3c(c2)C(=O)N(Cc2cccnc2)C3=O)c(C)c1", "Potency": "inconclusive: 3.16 µM [quencher, side channel, full curve, poor fit]"},
      {"smiles": "O=C(Nc1ncn[nH]1)c1ccc([N+](=O)[O-])cc1[N+](=O)[O-]", "Potency": "inconclusive: 14.1 µM [quencher, side channel, partial curve]"},
      {"smiles": "Cc1ccc(NC(=O)c2cc(=O)c3ccccc3o2)cc1", "Potency": "inconclusive: 6.31 µM [quencher, side channel, partial curve]"},
      {"smiles": "C=CCSc1nnc(N2C(=O)C(O)=C(C(=O)c3ccco3)C2c2ccccc2F)s1", "note": "(configuration not stated)", "Potency": "inconclusive: 31.6 µM [quencher, side channel, single point]"},
      {"smiles": "NS(=O)(=O)c1ccc(CNC(=O)c2cc(=O)c3cc(Cl)ccc3o2)cc1", "Potency": "inconclusive: 3.55 µM [quencher, side channel, single point]"},
      {"smiles": "CC(=O)c1sc(N/N=C\\c2ccc(C)cc2)nc1C", "Potency": "inconclusive: 17.8 µM [quencher, side channel, partial curve]"},
      {"smiles": "Cc1nonc1CN(C)C(=O)CC1C(=O)NCCN1Cc1c(F)cccc1Cl", "note": "(configuration not stated)", "Potency": "inactive"},
      {"smiles": "CN(C)c1ccc(/C=N/NC(=O)c2ccccn2)cc1", "Potency": "inconclusive: 28.2 µM [quencher, side channel, single point]"},
      {"smiles": "CC(=O)OCC(=O)[C@H]1CC[C@H]2[C@@H]3CCC4=CC(=O)CC[C@]4(C)[C@H]3CC[C@]12C", "Potency": "inactive"},
      {"smiles": "CC1CCN(CCNC(=O)C2CCCN(S(=O)(=O)c3cccc4nsnc34)C2)CC1", "note": "(configuration not stated)", "Potency": "inconclusive: 10 µM [quencher, side channel, partial curve]"},
      {"smiles": "O=[N+]([O-])c1ccc2nc(-[n+]3c(-c4ccccc4)cc(-c4ccccc4)cc3-c3ccccc3)[nH]c2c1", "Potency": "inconclusive: 8.91 µM [quencher, side channel, full curve]"},
      {"smiles": "CCNC(=O)/C(C#N)=C/c1c(N2CCN(Cc3ccc4c(c3)OCO4)CC2)nc2c(C)cccn2c1=O", "Potency": "inconclusive: 14.1 µM [quencher, side channel, partial curve]"},
      {"smiles": "CCOC(=O)C1(c2nc(N)cs2)COC(=O)C1", "note": "(configuration not stated)", "Potency": "inconclusive: 25.1 µM [quencher, side channel, single point]"},
      {"smiles": "O=C(NCc1ccco1)/C(=C/C=C\\c1ccccc1)NC(=O)c1ccc(Br)o1", "Potency": "inconclusive: 28.2 µM [quencher, side channel, single point]"},
      {"smiles": "Cc1cc(C)c2c(N)c3cccc(C)c3nc2n1", "Potency": "inconclusive: 12.6 µM [quencher, side channel, partial curve]"},
      {"smiles": "Cn1c([N+](=O)[O-])cnc1N1CCN(c2nncs2)C1=O", "Potency": "inconclusive: 17.8 µM [quencher, side channel, partial curve]"},
      {"smiles": "Cc1oc(-c2cccc3ccccc23)nc1CN1CCC[C@H]1CO", "Potency": "inactive"},
      {"smiles": "Nc1ccc(C(=O)OCC(=O)N2CCN(C(=O)c3ccco3)CC2)cc1[N+](=O)[O-]", "Potency": "inconclusive: 11.2 µM [quencher, side channel, partial curve]"},
      {"smiles": "CCN1C(=O)/C(=C/C=C2/SCCN2C)SC1=S", "Potency": "inconclusive: 2.24 µM [quencher, side channel, full curve]"},
      {"smiles": "O=c1oc2c(O)cccc2cc1-c1nc2ccccc2[nH]1", "Potency": "inconclusive: 31.6 µM [quencher, side channel, partial curve]"},
      {"smiles": "O=C1c2ccccc2-c2nnc(-c3ccc(F)cc3)cc21", "Potency": "inconclusive: 0.631 µM [quencher, side channel, full curve]"}
    ]}
  ]
}
